Measured values: ChEMBL document CHEMBL1201862, “PubChem BioAssay data set” (2004)

The compounds below were run on NCI-H322M (assay: NCI-60 cell line screen, 48 h).
For COc1ccc2c(c1)CC[C@@H]1[C@@H]2CC[C@]2(C)C(=O)/C(=C/c3cc(OC)c(OC)c(OC)c3)C[C@@H]12, the GI50 was inactive: 31.4 µM. For O=C(N/N=C(/c1nc2ccc([N+](=O)[O-])cc2[nH]c1=O)C(O)c1ccc([N+](=O)[O-])cc1)c1ccncc1 (stereo not drawn), the GI50 was inactive: > 100 µM. For CCOC(OC(C)=O)[C@@H]1C=C[C@H](C)N(c2ccc([N+](=O)[O-])cc2)O1 (stereo partly drawn), the GI50 was inactive: 17.5 µM. With CCN(CC)CCOC(=O)Cc1cccc2c(=O)cc(-c3ccccc3)oc12 the GI50 was inactive: 54.6 µM. In the case of CC(=O)c1cccc(Nc2c3ccccc3nc3occc23)c1, the GI50 is reported as inactive: 35 µM. With Cc1ccc(-c2c(C#N)c(-c3ccc(C)cc3)n(NS(=O)(=O)c3ccccc3)c(=O)c2C#N)cc1 the GI50 was inactive: > 100 µM. For CC(C)(C)CC(C)(C)NC(=S)NO, the GI50 was inactive: > 100 µM. For CCCCOC(=O)C1CN2C(=NC1(C(F)(F)F)C(F)(F)F)Sc1ccccc12 (stereo not drawn), the GI50 was inactive: 90.6 µM. With O=C(C=P(c1ccccc1)(c1ccccc1)c1ccccc1)c1ccccc1-c1ccccc1C(=O)C=P(c1ccccc1)(c1ccccc1)c1ccccc1 the GI50 was active: 0.0296 µM. With O=C1C=Cc2ncccc2C1=O the GI50 was inactive: 25.2 µM. In the case of CSc1nc2[nH]c(=O)c(C)nc2c(=O)[nH]1, the GI50 is reported as inactive: > 100 µM. Nc1c(C(=O)O)nnc2ccc(Cl)cc12 was tested, and the GI50 was inactive: > 100 µM. For CC(C)(Br)C(Br)CCC(C)(Br)C(Br)CO (stereo not drawn), the GI50 was inactive: > 10 µM. For O=C1C=C(Br)c2c(-c3ccccc3)oc3cccc1c23, the GI50 was inactive: > 100 µM. For COC1=CC(=C(C#N)/C(=N\c2ccccc2)SC)C=C(OC)C1=O, the GI50 was inactive: > 100 µM. For COc1ccccc1C1C2=C(COC2=O)Oc2cc3c(cc21)OCO3 (stereo not drawn), the GI50 was inactive: 4.43 µM. For ICC1CCCO1 (stereo not drawn), the GI50 was inactive: > 100 µM. In the case of CCCC[C@H](CCc1ccccc1)N(C(=O)OC)N1CCC[C@H]1COC, the GI50 is reported as inactive: 29.2 µM. CCc1cccc(CC)c1Nc1nc(-c2ccccc2-c2ccccc2)cs1 was tested, and the GI50 was inactive: > 100 µM. With C=CCN1C(=O)CS/C1=N\NC(=O)c1c(C)nc2sccn12 the GI50 was inactive: > 100 µM. In the case of CCC(=C/[C@H](C)C/C=C/C(C)=C/[C@@H](C)C(=O)[C@@H](C)[C@H](O)[C@@H](C)CC)/C=C/[C@H]1CC=CC(=O)O1 [CALLYSTATIN A], the GI50 is reported as active: < 0.0012 µM. With C=C1C[C@@H](O)C[C@@]2(C)C[C@@H]3OC(=O)C(=C)[C@@H]3C[C@H]12 the GI50 was inactive: 20.5 µM. In the case of O=C1C[C@@]23CCC4(CC2CCC[C@H]3O1)OCCO4 (stereo partly drawn), the GI50 is reported as inactive: > 100 µM. With C[C@@H]1O[C@]2(O)[C@@H]3CCCN3S(=O)(=O)CCN2C1=O the GI50 was inactive: > 100 µM. Cc1ccc(S(=O)(=O)NC(=O)C2=C(c3ccccc3)[N-]N(C)c3nc4cccc[n+]4nc32)cc1 was tested, and the GI50 was inactive: > 100 µM. With CCOP(=O)(OCC)c1c(C(=O)OC)cc(=O)[nH]c1-c1ccc(C)cc1 the GI50 was inactive: 22.2 µM. For COc1cc(/C=C2\CCC/C(=C\c3cc(OC)c(O)c(OC)c3)C2=O)cc(OC)c1O, the GI50 was inactive: 3.9 µM. For CCCNCCCCC(NC(C)=O)C(=O)NCc1ccccc1 (stereo not drawn), the GI50 was inactive: > 100 µM. O=C(c1ccccc1)N(CCCCNC(=O)C(F)(F)F)CCCNC(=O)C(F)(F)F was tested, and the GI50 was inactive: > 100 µM. For CC(C)(C)c1ccc2c(c1)C(O)(c1ccccc1)c1cc(C(C)(C)C)ccc1C2(O)C(F)(F)F (stereo not drawn), the GI50 was inactive: 2.16 µM. For C=C1C(C(=O)OC)[C@H]1C(=O)OC (stereo partly drawn), the GI50 was inactive: > 100 µM. With CC1(c2cccc3ccccc23)OC(=O)c2ccccc21 (stereo not drawn) the GI50 was inactive: 38.7 µM. With CC(=O)OC1CC(n2cc(F)c(=O)[nH]c2=O)OC1CO (stereo not drawn) the GI50 was inactive: 15.2 µM. With CCCCCC[C@H]1CC(=O)C2CCCC[C@@]23CC[C@H](CCl)N13.CCCCCC[C@H]1CC(=O)C2CCCC[C@@]23C[C@H](Cl)CN13 (stereo partly drawn) the GI50 was inactive: > 100 µM. For CC(=O)OC1CC[C@@]2(C)C(CC[C@]3(C)C2CC=C2[C@@H]4C(C)[C@H](C)CCC4(C)CCC23C)[C@@]1(C)C(=O)O (stereo partly drawn), the GI50 was inactive: 18.7 µM. With C[C@]12CCC(=O)C=C1CC[C@@H]1[C@@H]2CC[C@]2(C)C(=O)/C(=C/c3ccc([N+](=O)[O-])cc3)C[C@@H]12 the GI50 was inactive: > 100 µM. O=c1[nH]cc(COCC(F)(F)C(F)(F)C(F)(F)C(F)F)c(=O)[nH]1 was tested, and the GI50 was inactive: > 100 µM. For COc1ccc(C(NC(=O)C[C@@H](C(=O)N(C)C(C)C(=O)O)N(C)C(=O)[C@@H]2CCCN2C(=O)[C@H](C(C)C)N(C)C(=O)C(C(C)C)N(C)C(=O)[C@H](Cc2ccccc2)N(C)C(=O)C(NC(=O)OC(C)(C)C)C(C)C)c2ccc(OC)cc2)cc1 (stereo partly drawn) (Boc-[ξV][NMeF][ξNMeV][NMeV]P[NMeD](X17)[ξNMeA]-OH), the GI50 was inactive: 14.8 µM. For CC(C)(C)CC(C)(C)c1cc2c(O)c(c1)Cc1cc(C(C)(C)CC(C)(C)C)cc(c1O)Cc1cc(C(C)(C)CC(C)(C)C)cc(c1O)Cc1cc(C(C)(C)CC(C)(C)C)cc(c1O)Cc1cc(C(C)(C)CC(C)(C)C)cc(c1O)Cc1cc(C(C)(C)CC(C)(C)C)cc(c1O)Cc1cc(C(C)(C)CC(C)(C)C)cc(c1O)Cc1cc(C(C)(C)CC(C)(C)C)cc(c1O)C2, the GI50 was inactive: > 100 µM. O=CC(I)=C(c1ccccc1)c1ccccc1 was tested, and the GI50 was inactive: 13 µM. With COc1ccc2nc3c(C(=O)NCCN(C)C)cccc3nc2c1 the GI50 was inactive: 5.71 µM. With CN(CCCN(C)CCc1ccc(Cl)c(Cl)c1)CCCN1CCCC1 the GI50 was inactive: 1.71 µM. For O=C1CCCC(=O)N1CCc1c[nH]c2ccccc12, the GI50 was inactive: > 100 µM. For Cc1nc(-c2nc(C)c(C(=O)/C=C/c3ccc(N(C)C)cc3)s2)sc1C(=O)/C=C/c1ccc(N(C)C)cc1, the GI50 was inactive: > 100 µM. COc1cc(C2c3cc4c(cc3OC(NNS(=O)(=O)c3ccc(C)cc3)C2C)OCO4)cc(OC)c1O (stereo not drawn) was tested, and the GI50 was inactive: 23.7 µM. CCNCCCCNCCCCNCCCCNCCCCNCC was tested, and the GI50 was inactive: 23.2 µM. In the case of C=C(C)C(=O)O[C@@H]1C/C(C)=C\[C@H](OC(C)=O)C[C@](C)(O)/C=C2/OC(=O)C(COC(C)=O)=C21, the GI50 is reported as inactive: 8.39 µM. With CC(C)c1ccc2c(c1)/C(=C1/Nc3ccccc3C1=O)C(=O)N2 the GI50 was inactive: 6.85 µM. In the case of Oc1nc(S)nc2nc3c4cccnc4c4ccccc4c3nc12, the GI50 is reported as inactive: > 100 µM. O=C(c1ccccc1)N1C(=S)N(c2ccccn2)C(=N/c2ccccc2)/C1=N\c1ccccc1 was tested, and the GI50 was inactive: 14.8 µM. With COC(=O)[C@@H]1[C@H](O)[C@H](C)[C@H](O)[C@H](C)/C=C\C=C(\C)C(=O)Nc2c(C)c(OC(C)=O)c3c(c2O)C(=O)C(C)=C2OCOC(=C23)/C(C)=C/[C@@H](O)[C@H](O)[C@@H](C)[C@H]1OC(C)=O the GI50 was inactive: > 100 µM. For O=S(=O)(O)c1ccc(/N=N/c2ccccc2)cc1, the GI50 was inactive: > 100 µM. COc1ccc(CCNCc2cccc(OC)c2OC)cc1OC was tested, and the GI50 was inactive: > 100 µM. With O=C1OC(=O)C2=C1C(c1cccs1)C=C(c1cccnc1)N2c1ccncc1 (stereo not drawn) the GI50 was inactive: 17.3 µM. With CC(=O)O[C@H]1C[C@](C)(O)[C@@]23CC([C@@H](OC(=O)C(C)(C)O)[C@@H](OC(C)=O)C2(COC(=O)c2ccccc2)[C@H]1OC(C)=O)C(C)(C)O3 (stereo partly drawn) the GI50 was inactive: > 100 µM. Cc1cccc(C2ON=C(c3ccccc3)N2C23CC4CC(CC(C4)C2)C3)c1 (stereo not drawn) was tested, and the GI50 was inactive: > 10 µM. With COc1ccc(C(=O)Sc2c(-c3ccccc3)c(=O)n(-c3ccccc3)c(=S)n2-c2ccccc2)cc1 the GI50 was inactive: > 100 µM. In the case of CCOC(=O)c1ccc(Nc2nc3ccc(C(F)(F)F)cc3nc2-c2ccccc2)cc1, the GI50 is reported as inactive: > 100 µM. In the case of CCC(=O)OC1CCn2c1nc1c2C(=O)C(C)=C(NC(C)=O)C1=O (stereo not drawn), the GI50 is reported as inactive: 6.19 µM. With CC(=O)OCC(C)C1=C(OC(C)=O)C(=O)C2(C)C/C=C(/C)CC/C=C(\C)CCC(OC(C)=O)C(C)CCC12 (stereo not drawn) the GI50 was inactive: 17.3 µM. For O=C1c2cccnc2-c2nccc3ccnc1c23, the GI50 was inactive: 10.3 µM. In the case of COC(=O)[C@@H]1CSC(=S)N1C(=O)C[C@H]1CC=CC[C@H]1CC(=O)Sc1ccccc1, the GI50 is reported as inactive: 23.6 µM. Cc1ccc(NC(=O)C23CC4CC(CC(C4)C2)C3)c(C(=O)NNC(=O)c2ccc(Cl)cc2)c1 was tested, and the GI50 was inactive: 17.7 µM. With CC(C)CCNC(=O)c1ccc(CNC(=O)/C=C/c2ccc3ccccc3c2)cc1 the GI50 was inactive: > 100 µM. In the case of O=C1c2ccccc2-c2nc(-c3ccccc3)cc3c2c1nc1ccccc13, the GI50 is reported as inactive: 19.3 µM. C=CNC(=S)n1nc(-c2ccccc2NC(=O)C(F)(F)F)c(=O)n(C(=S)NC=C)c1=S was tested, and the GI50 was inactive: 38.6 µM. CC1(C)N=C(N)N=C(N)N1c1ccc(Cl)cc1 was tested, and the GI50 was inactive: 12.5 µM. For N#C/N=C(/NCCc1c[nH]c2ccccc12)Oc1ccccc1, the GI50 was inactive: > 100 µM. In the case of Cc1c(NC(=O)Nc2c(Cl)cccc2Cl)c(=O)n(-c2ccccc2)n1C, the GI50 is reported as inactive: > 100 µM. With O=C1NC(=O)C(C(c2ccc(Cl)cc2)C2C(=O)NC(=O)NC2=O)C(=O)N1.c1ccncc1 the GI50 was inactive: > 100 µM. COc1ccc(OCc2ccc3nc(-c4ccccc4)c(Cl)nc3c2)cc1 was tested, and the GI50 was inactive: > 100 µM. CCOC(=O)NC(=O)c1cn(CCCCCCCCCCC(=O)N2CCN(CCn3cc(C(=O)NC(=O)OCC)c(=O)[nH]c3=O)CC2)c(=O)[nH]c1=O was tested, and the GI50 was inactive: > 100 µM. CCOC(=O)C(=CNc1ccc(S(N)(=O)=O)cc1)C(=O)OCC was tested, and the GI50 was inactive: > 100 µM. CCN(CC)C(=O)CCn1ccc(=O)[nH]c1=O was tested, and the GI50 was inactive: > 100 µM. O=C(COc1ccc(OCC(=O)N2C(=O)CC(=O)N(c3ccccc3)C2=S)cc1)N1C(=O)CC(=O)N(c2ccccc2)C1=S was tested, and the GI50 was inactive: 79.1 µM. In the case of CN(C)c1ccc(C(Cc2ccccc2)C2NC(=S)NC2=O)cc1 (stereo not drawn), the GI50 is reported as inactive: > 100 µM. For Cn1cnc([N+](=O)[O-])c1SCC(=O)O, the GI50 was inactive: > 100 µM. For Nc1ncn([C@@H]2C=C(CO)C(O)C2O)c(=O)n1 (stereo partly drawn), the GI50 was inactive: > 100 µM. COc1ccc2nc3ccc(OC)cc3c(SCCO)c2c1 was tested, and the GI50 was inactive: 38.6 µM. For Cc1cc(O)nc(NNC(C#N)c2ccc([N+](=O)[O-])cc2)n1 (stereo not drawn), the GI50 was inactive: 94 µM. With C[n+]1c2ccccc2n2c3ccccc3c(NCCc3ccccn3)c(C#N)c21 the GI50 was inactive: 2.21 µM. In the case of OC(C/C(=N\N=C(/CC(O)(C(F)(F)F)C(F)(F)F)c1ccccc1)c1ccccc1)(C(F)(F)F)C(F)(F)F, the GI50 is reported as inactive: > 10 µM. CCN(CC)C(=O)CCN1CC1 was tested, and the GI50 was inactive: > 10 µM.

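Protocol summary: plate cells (96-well), add compound at 5 concentrations, incubate 48 h, interpolate endpoints linearly. GI50 marks 50% less growth.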 Active and inactive are the calls of the source. No stated cut-off is given here; in the data, active = GI50 up to about 1.1 µM and inactive = higher. Square brackets hold non-standard residues; d marks the D form. Peptide text beside a SMILES is read from it. * marks the point of attachment. ξ: configuration not given here. X17 = COc1ccc(C(N*)c2ccc(OC)cc2)cc1; NMeF = CN[C@@H](Cc1ccccc1)C(=O)O; NMeD = CN[C@@H](CC(=O)O)C(=O)O; NMeV = CN[C@H](C(=O)O)C(C)C; ξNMeV = CNC(C(=O)O)C(C)C; Boc = CC(C)(C)OC(=O)*; ξNMeA = CNC(C)C(=O)O; ξV = CC(C)C(N)C(=O)O
